{
  "source": "PubChem BioAssay AID1479",
  "about": "(National Center for Advancing Translational Sciences (NCATS), 2009)",
  "note": "Values joined by “and” are separate entries in the source; they are usually repeats but may differ in a detail not shown here. Equal values may be shown once. Hit rate of the full screen: of about 280,000 compounds, about 820 (0.29%) were called active. The shares of active, inactive and inconclusive entries below differ from those in the screen. Calls come from the whole dose curve; as a rule, active = well fitted curve in either direction with a large enough effect; inconclusive = small, poorly fitted or top-dose-only effect; inactive = flat fitted curve, though single readings scatter. No potency is given beside an inconclusive call; the fits are too rough. Potency is the fitted concentration of half-maximal effect; tags give direction and shape of the fitted curve or compound fluorescence and quenching.",
  "data": [
    {"test": "Total Fluorescence Counterscreen for Inhibitors of the Interaction of Thyroid Hormone Receptor and Steroid Receptor Coregulator 2", "conditions": "TRb/SRC2 Texas Red total fluorescence interference; series mostly up to 106 µM", "procedure,_shortened": "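Flags fluorescent or light-absorbing compounds by total fluorescence, S + 2P, at 555 nm excitation and 632 nm emission. Mixture: 20 nM Texas Red SRC2 peptide, 0.6 uM human TRb LBD, 1 uM T3, 5% DMSO; compound exposure 5 h at ambient temperature.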", "values": [
      {"smiles": "Cn1cc(C(=O)NCc2ccccc2)c(=O)c2cc(S(=O)(=O)N3CCCCCC3)ccc21", "Potency": "inconclusive [falling, partial curve, poor fit]"},
      {"smiles": "COc1cc(OC)c(NC(=O)c2cc(S(=O)(=O)N3CCCC3)cn2C)cc1Cl", "Potency": "inconclusive [quencher, partial curve]"},
      {"smiles": "O=C1CCCC(O)=C1N=Nc1c(Cl)cc(Cl)cc1Cl", "Potency": "active: 44.7 µM [fluorescent]"},
      {"smiles": "CC1(C)CC(=O)c2c(oc3cc(O)c(O)cc23)C1", "Potency": "inactive"},
      {"smiles": "CCN(Cc1ccccc1)C(=O)CCS(=O)(=O)c1ccc2c(c1)oc(=O)n2C", "Potency": "inconclusive [falling, full curve, poor fit]"},
      {"smiles": "COc1ccc(NC(=O)N(Cc2ccco2)C2CCN(C(C)=O)CC2)c(OC)c1", "Potency": "inconclusive [quencher, full curve]"},
      {"smiles": "CCOc1cc(C2c3c(oc4ccccc4c3=O)C(=O)N2Cc2ccccc2Cl)ccc1O", "note": "(stereo not drawn)", "Potency": "inconclusive [falling, full curve, poor fit]"},
      {"smiles": "O=C(Nc1ccc(F)c(Cl)c1)C1CCCN1S(=O)(=O)c1ccc(F)cc1", "note": "(stereo not drawn)", "Potency": "inconclusive [quencher, full curve]"},
      {"smiles": "COc1cccc(OC)c1Cn1nnc2c(=O)[nH]c(C3CCN(C(=O)c4ccccc4)CC3)nc21", "Potency": "inconclusive [falling, partial curve, poor fit]"},
      {"smiles": "Cn1c(-n2cccc2)c(-c2c(-c3ccc(F)cc3)[nH]c3c2c(=O)[nH]c(=O)n3C)c(=O)[nH]c1=O", "Potency": "inconclusive [falling, full curve, poor fit]"},
      {"smiles": "COc1ccc(S(=O)(=O)Nc2cccc(/C=C/C(=O)O)c2)cc1", "Potency": "inconclusive [falling, partial curve, poor fit]"},
      {"smiles": "Cc1ccc2c(=O)cc(C(=O)Nc3ccc(S(=O)(=O)N4CCCCC4)cc3)oc2c1", "Potency": "inconclusive [falling, full curve, poor fit]"},
      {"smiles": "O=S(=O)(c1ccccc1)c1nnn2c1nc(N1CCN(c3ccccc3)CC1)c1cc(Cl)ccc12", "Potency": "inconclusive [quencher, full curve]"},
      {"smiles": "COCCCNC(=O)c1c(-c2ccccc2)c(-c2ccccc2)nn(C)c1=O", "Potency": "inactive"},
      {"smiles": "COc1ccc(/C=N/NC(=O)c2nc(-c3ccccc3)n(-c3ccccc3)n2)cc1OC", "Potency": "inconclusive [falling, full curve, poor fit]"},
      {"smiles": "CCC(C)Nc1nc(C)nc2c1oc1ccccc12", "note": "(stereo not drawn)", "Potency": "inactive"},
      {"smiles": "COc1ccc(C(=O)Nc2ccc3oc(-c4ccc(OC)cc4)nc3c2)cc1", "Potency": "inconclusive [falling, full curve, poor fit]"},
      {"smiles": "O=C(Nc1ncc([N+](=O)[O-])s1)c1cccc([N+](=O)[O-])c1", "Potency": "inconclusive [falling, single point]"},
      {"smiles": "O=C(O)c1cc(O)c2c(c1)C(=O)c1cccc(O)c1C2=O", "Potency": "inconclusive [quencher, full curve]"},
      {"smiles": "COc1c(Cl)cc(Cl)cc1/C=C(\\C#N)c1nc(-c2ccc(Cl)cc2)cs1", "Potency": "inconclusive [falling, full curve, poor fit]"},
      {"smiles": "CC1(C)CC(=O)C2=C(C1)c1c(ccc3ccccc13)NC2c1cc([N+](=O)[O-])cc([N+](=O)[O-])c1O", "note": "(stereo not drawn)", "Potency": "inactive"},
      {"smiles": "CC(C)c1ccc(NC(=O)c2cnn3c(C(F)F)cc(-c4ccccc4)nc23)cc1", "Potency": "inconclusive [falling, full curve, poor fit]"},
      {"smiles": "CC1(C)C(=O)Nc2ccccc2N1C(=O)CSc1nc(-c2ccccc2)cs1", "Potency": "active: 31.6 µM [quencher]"},
      {"smiles": "CCN(c1ccccc1)S(=O)(=O)c1ccc(NC(=O)c2cc(=O)c3ccc(C)c(C)c3o2)cc1", "Potency": "inconclusive [falling, full curve, poor fit]"},
      {"smiles": "Cc1ccc2c(CC(=O)Nc3c(C(=O)c4ccc(F)cc4)oc4ccccc34)coc2c1", "Potency": "inconclusive [quencher, partial curve]"},
      {"smiles": "O=C(N/N=C/c1ccncc1)c1cccc(NC(=O)c2ccc(Cl)cc2)c1", "Potency": "inconclusive [falling, full curve, poor fit]"},
      {"smiles": "COc1cc(Nc2nc(SCc3cccc(Cl)c3)nc3ccccc23)cc(OC)c1", "Potency": "inactive"},
      {"smiles": "COc1cccc(C(=O)NC(=O)Nc2ccc(-n3nc(C(F)(F)F)cc3C(F)(F)F)cc2)c1", "Potency": "inconclusive [quencher, full curve]"},
      {"smiles": "O=C(COC(=O)Cc1c(Cl)cccc1Cl)NCCC1=CCCCC1", "Potency": "inconclusive [falling, full curve, poor fit]"},
      {"smiles": "Cc1ccc([N+](=O)[O-])cc1-c1ccc(/C=C(\\C#N)c2[nH]nc(N)c2C#N)o1", "Potency": "inactive"},
      {"smiles": "Cc1cccc(N2CCN(S(=O)(=O)c3cn(C)c(C)n3)CC2)c1C", "Potency": "inconclusive [falling, full curve, poor fit]"},
      {"smiles": "CC(=O)Nc1ccc(-n2nnnc2SCC(=O)Nc2cccc(NC(=O)c3ccco3)c2)cc1", "Potency": "inactive"},
      {"smiles": "COc1cccc2c1C(=O)c1c(O)c3c(c(O)c1C2=O)C[C@@](O)(C(=O)CO)C[C@@H]3O[C@H]1C[C@H](N)[C@H](O)[C@H](C)O1", "Potency": "active: 39.8 µM [fluorescent] and active: 100 µM [fluorescent]"},
      {"smiles": "CN(C)CCN(C(=O)c1ccco1)c1nc2c(F)cc(F)cc2s1", "Potency": "inconclusive [quencher, full curve]"},
      {"smiles": "O=C(COc1ccc(F)cc1)Nc1nnc(S(=O)(=O)N2CCc3ccccc32)s1", "Potency": "inconclusive [quencher]"},
      {"smiles": "CCOc1ccc(CNC(=O)c2ccc3c(c2)sc2nc(-c4ccccc4)cn23)cc1", "Potency": "inactive"},
      {"smiles": "COc1ccc(-c2nc(C)c(CCNC(=O)C(=O)Nc3ccccc3F)s2)cc1", "Potency": "inconclusive [falling, full curve, poor fit]"},
      {"smiles": "NC(=O)[C@H]1CCCN1C(=O)[C@H](Cc1cnc[nH]1)NC(=O)[C@@H]1CCC(=O)N1", "Potency": "inconclusive [falling, full curve, poor fit]"}
    ]}
  ]
}
